In PubChem BioAssay AID2147 (National Center for Advancing Translational Sciences (NCATS), 2009):
“And” between values parts separate entries of the source, which are not always exact repeats. Equal values may be shown once. Hit rate of the full screen: of about 230,000 compounds, about 3,600 (1.6%) were called active. Inconclusive means that the source gave no clear call. Such entries were picked first, then a sample of the others. Calls follow the shape of the dose curve; as a rule, active = well fitted inhibition curve with a large enough effect (not every such curve was filed as active); inconclusive = small, poorly fitted or top-dose-only effect, or another doubt; inactive = no such curve, though single readings can be large or run the other way. A potency beside an inconclusive call is a rough fit, not a confirmed value.

biological target: Lysine-specific demethylase 4E (Homo sapiens) (UniProt B2RXH2); assay: qHTS Assay for Inhibitors of Human Jumonji Domain Containing 2E (JMJD2E); settings: JMJD2E catalytic domain, FDH-coupled NADH fluorescence (FDH is formaldehyde dehydrogenase); series mostly up to 57.1 µM
Chain of UniProt B2RXH2 (B2RXH2 whole entry, looked up, the tested form may be a part): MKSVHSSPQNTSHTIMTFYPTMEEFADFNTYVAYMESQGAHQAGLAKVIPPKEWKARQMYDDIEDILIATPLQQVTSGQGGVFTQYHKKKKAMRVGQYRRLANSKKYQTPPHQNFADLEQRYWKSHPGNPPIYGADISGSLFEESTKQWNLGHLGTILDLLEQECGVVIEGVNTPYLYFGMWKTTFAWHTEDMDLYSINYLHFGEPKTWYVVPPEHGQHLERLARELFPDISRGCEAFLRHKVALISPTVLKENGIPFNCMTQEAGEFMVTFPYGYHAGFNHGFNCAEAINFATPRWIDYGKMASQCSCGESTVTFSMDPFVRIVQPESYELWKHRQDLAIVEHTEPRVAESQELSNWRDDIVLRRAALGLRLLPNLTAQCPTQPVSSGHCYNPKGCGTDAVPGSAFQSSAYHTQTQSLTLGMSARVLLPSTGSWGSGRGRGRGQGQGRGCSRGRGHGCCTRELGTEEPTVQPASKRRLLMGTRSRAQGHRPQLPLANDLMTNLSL
Source text: Assay Provider: Structural Genomics Consortium [SGC] Screening Center PI: Austin, C.P. Screening Center: NIH Chemical Genomics Center [NCGC] The fine interplay among methylation states of several lysine residues on the tails of histone proteins is a major determinant of the transcriptional state of the associated DNA coding regions and is commonly referred to as the histone code. Histone lysine demethylases catalyze the removal of methyl groups from methylated lysine sidechains on histones H3 and H4, thus antagonizing the reactions catalyzed by histone lysine methyltransferases. […] In search for novel inhibitors of JMJD2E demethylase, a member of the largest set of histone demethylases belonging to the Fe(II) and 2-oxoglutarate oxygenase (2OG) superfamily, we performed a quantitative high-throughput screen (Inglese 2006) by using an assay which utilizes a trimethylated peptide substrate corresponding to a fragment of histone H3 (sequence ARKme3STGGK) with detection of the formaldehyde co-product in real time by a formaldehyde dehydrogenase (FDH) coupled reaction. FDH catalyzes oxidation of formaldehyde to formic acid with the concomitant reduction of the non-fluorescent beta-nicotinamide adenine dinucleotide hydrate (NAD+) cofactor to the fluorescent NADH co-product. References: Inglese, J., Auld, D., Jadhav, A., Johnson, R., Simeonov, A., Yasgar, A., Zheng, W. and Austin, C. Proc Natl Acad Sci USA 2006, 103, 11473-11478. N. R. Rose, S. S. Ng, J. Mecinovic, B. M. Lienard, S. H. Bello, Z. Sun, M. A. McDonough, U. Oppermann and C. J. Schofield, J Med Chem, 2008, 51, 7053-7056. Sakurai, M., Rose, N., Schultz, L., Quinn, A., Jadhav, A., Ng, S., Oppermann, U., Schofield, C.J. and Simeonov, A. Mol BioSystems 2009, in press. S. Michael, D. Auld, C. Klumpp, A. Jadhav, W. Zheng, N. Thorne, C. Austin, J. Inglese and A. Simeonov, Assay Drug Dev Technol, 2008, 6, 637-657.
Reagents and Controls: Ferrous ammonium sulfate, (+)-sodium L-ascorbate, beta-nicotinamide adenine dinucleotide hydrate (NAD+), Tween-20, formaldehyde dehydrogenase from P. putida (FDH), and disodium 2-oxoglutarate were from Sigma (St. Louis, MO). Black solid-bottom 384-well or 1,536-well assay plates were from Greiner Bio-One (Monroe, NC). Enzyme was supplied by Prof. Udo Oppermann, SGC-Oxford. The catalytic domain of human JMJD2E (residues 1-337) was produced as an N-terminally His6-tagged protein in E. coli, and purified by Ni-affinity chromatography and size-exclusion chromatography, and stored in HEPES 50 mM/ NaCl 500 mM pH 7.5, as reported in Rose 2008. The trimethylated histone peptide substrate ARK(me3)STGGK was synthesized and HPLC-purified by the Tufts University Core Facility (Boston, MA). Substrate solution (Sakurai 2009) contained 50 uM ARK(me3)STGGK, 0.00025 U/uL FDH, 50 uM 2-oxoglutarate, 250 uM NAD+, 1 mM ascorbate, and 10 uM ferrous ammonium sulfate. Controls and plate map: Buffer (150 mM HEPES pH 7.5 containing 0.01% Tween-20) in columns 3 and 4 as negative control (no enzyme) and 100 nM JMJD2E final concentration in columns 1,2, and 5-48. Assay Steps: Enzyme and buffer solutions (3 uL) were dispensed into a 1,536-well Greiner black solid-bottom assay plate. The library compounds (23 nL) were transferred using a Kalypsys pintool equipped with 1,536-pin array. The plate was incubated at room temperature (15 min), and then a 1 uL aliquot of substrate solution was added to initiate the reaction. The plate was transferred to ViewLux imager where an initial reading using standard UV optics (Ex 340 nm, Em 450 nm) was obtained. The plate was then removed from the reader, incubated for 30 minutes at room temperature, and returned to the reader for a second fluorescence reading. A fully automated robotic screening system (Kalypsys Inc, San diego, CA) was used to perform the above steps as described previously (Michael 2008). […]
Also: nearly all actives have a fitted effect of over 50% in size.
Potency is read from the fitted curve at half-maximal effect; tags tell the direction and shape of the fitted curve.

Row | Compound | Potency
1 | COc1ccc(/C=C/C(=O)Nc2cc(C(F)(F)F)ccc2Cl)cc1OC | inconclusive: 31.6 µM [inhibitor, single point]
2 | CCC1(C)NC(=O)N(CC(=O)N2N=C(c3ccccc3)CC2c2ccc(OC)cc2)C1=O (stereo unspecified) | inconclusive: 39.8 µM [inhibitor, single point]
3 | Cc1ccc(S(=O)(=O)NC(CC(=O)N2CCOCC2)c2ccco2)cc1 (stereo unspecified) | inactive
4 | COc1ccc(/C=N/n2nnnc2N)cc1OC | inconclusive: 17.8 µM [inhibitor, partial curve]
5 | CCCCCc1cc(=O)oc2c(C(CCN3CCCCC3)c3cc(OC)c(OC)c(OC)c3)c(OC)cc(OC)c12 (stereo unspecified) | inconclusive: 39.8 µM [inhibitor, single point]
6 | CCC(=O)Nc1ccc2oc(-c3cccc(C)c3)nc2c1 | inconclusive: 28.2 µM [inhibitor, partial curve]
7 | CCCCn1nc2cc(C(=O)NCC34CC5CC(CC(C5)C3)C4)ccc2c1OC | inconclusive: 28.2 µM [inhibitor, partial curve]
8 | CSc1nc2ncc3c(n2n1)CC(C)(C)CC3=O | inconclusive: 35.5 µM [inhibitor, single point]
9 | COC(=O)c1ccc(NC(=O)CSc2ccccc2)cc1 | inactive
10 | c1ccc(-c2ccccn2)nc1 | inconclusive: 39.8 µM [inhibitor, single point] and inconclusive: 28.2 µM [inhibitor, single point]
11 | CCOC(=O)c1c(OCC)[nH]c2c1cc(O)c1ccccc12 | active: 22.4 µM
12 | COc1ccccc1/C=C/C=N/N1CCN(Cc2ccccc2)CC1 | inactive
13 | CSc1nc2ccc(NS(=O)(=O)c3ccccc3F)cc2s1 | inconclusive: 35.5 µM [inhibitor, single point]
14 | COc1cccc(C2NC(=O)c3ccccc3O2)c1OCc1ccccc1F (stereo unspecified) | inconclusive: 25.1 µM [inhibitor, single point]
15 | C=CCNc1nc(N2CCCCC2)c(C#N)c2c1CN(Cc1ccccc1)CC2 | inconclusive: 25.1 µM [inhibitor, partial curve]
16 | CCOC(=O)c1c(-c2ccccc2)oc2ccc(OCC(=O)O)cc12 | inconclusive: 25.1 µM [inhibitor, partial curve]
17 | CC1(C)S[C@@H]2[C@H](NC(=O)[C@@H](N)c3ccccc3)C(=O)N2[C@H]1C(=O)O[C@H]1OC(=O)c2ccccc21 | inconclusive: 15.8 µM [inhibitor, single point]
18 | Cc1ccc(NC(=O)N2CCC(c3nc4c(nnn4Cc4cccc(Cl)c4)c(=O)[nH]3)CC2)cc1 | inactive
19 | CCOc1cc(C#N)c(NC(=O)Cn2nnc3ccccc32)cc1OCC | inconclusive: 28.2 µM [inhibitor, partial curve]
20 | N#CCC(=O)Nc1ccc(C(F)(F)F)cc1N1CCOCC1 | inconclusive: 25.1 µM [inhibitor, partial curve, poor fit]
21 | CCOC(=O)COc1ccc(-c2nnc(-c3ccccc3)o2)cc1 | inconclusive: 10 µM [inhibitor, partial curve]
22 | CCOC(=O)c1[nH]cnc1N=Nc1c(O)ccc2ccccc12 | inconclusive: 39.8 µM [inhibitor, single point]
23 | COC(=O)c1ccc(C(=O)N(CCN(C)C)c2nc3c(Cl)cccc3s2)cc1 | inactive
24 | CC1CC(C)CN(S(=O)(=O)c2ccc(C(=O)Nc3nnc(-c4cccs4)o3)cc2)C1 (stereo unspecified) | inconclusive: 39.8 µM [inhibitor, single point]

Row | Compound | Potency
25 | CCOC(=O)N1CCC(N2C(=O)c3ccccc3C2Nc2ccccc2)CC1 (stereo unspecified) | inactive
26 | CCOC(=O)C1CCCN(c2ncnc3c2cnn3-c2ccc(Cl)cc2)C1 (stereo unspecified) | inconclusive: 35.5 µM [inhibitor, single point]
27 | CC(C)C(=O)N1CCN(c2nc(-c3ccccc3)c3c(c2C#N)CCCC3)CC1 | inconclusive: 31.6 µM [inhibitor, partial curve]
28 | Cc1ccc(CN2CCN(/N=C\C(Br)=C\c3ccccc3)CC2)cc1 | inconclusive: 39.8 µM [inhibitor, single point]
29 | COC/C=C/C1=CC2=CC(=O)C(C)(O)C(=O)C2=CO1 (stereo unspecified) | inactive
30 | CNc1nc(-c2ccccc2OC)nc2ccccc12 | inconclusive: 25.1 µM [inhibitor, partial curve]
31 | Cc1ccc(-n2cc(CN3CCN(c4ccccn4)CC3)c(-c3ccc(F)cc3)n2)cc1 | inconclusive: 35.5 µM [inhibitor, single point]
32 | O=C1c2ccccc2C(=O)N1CCSc1n[nH]c(=S)s1 | inconclusive: 39.8 µM [inhibitor, single point]
33 | CSc1ccc(/C=N/NC(=O)c2cccs2)cc1 | inconclusive: 39.8 µM [inhibitor, single point]
34 | N/C(=N\OC(=O)CCCCCN1C(=O)c2ccccc2C1=O)c1ccccc1 | inactive
35 | NC(=S)N/N=C1\CC(c2ccc3c(c2)OCCCO3)Oc2ccc(F)cc21 (stereo unspecified) | inconclusive: 7.08 µM [inhibitor, partial curve]
36 | Cc1c(Cl)cnc(NC(=O)COC(=O)CCC(=O)c2cccs2)c1Cl | inactive
37 | COc1cc2c(cc1OC)C(C)=NCC2 | inconclusive: 31.6 µM [inhibitor, partial curve]
38 | CCN1CCN(c2cc(C)c3cc(NC(=S)N4CCCC4)ccc3n2)CC1 | inconclusive: 35.5 µM [inhibitor, single point]
39 | COCCN1C=C(C(=O)OC)C(c2ccccc2C(F)(F)F)C(C(=O)OC)=C1 | inconclusive: 28.2 µM [inhibitor, partial curve]
40 | COc1ccc(S(=O)(=O)Nc2nnc(C(C)(C)C)s2)cc1 | inactive
41 | COc1ccccc1NS(=O)(=O)c1cccc(NC(=O)c2sc3ccccc3c2Cl)c1 | inactive
42 | Cc1cccc(N(CC(=O)O)CC(=O)O)c1 | inconclusive: 39.8 µM [inhibitor, single point]
43 | O=C(NCc1ccccc1)c1ccc2c(=O)n(CC3CCCO3)c(=S)[nH]c2c1 (stereo unspecified) | inactive
44 | O=C(NC1CCCCC1NC(=O)c1cccs1)c1cccs1 (stereo unspecified) | inactive
45 | CCCCCCCCCCCCCCCCCC(=O)NCCc1ccc(O)c(O)c1 | inactive
46 | Cc1ccccc1C(=O)NN1C(=O)CSC1=S | inactive
47 | Cc1ccc(S(=O)(=O)N2CCCC(C(=O)Nc3ccc(C(=O)O)cc3)C2)cc1Cl (stereo unspecified) | inactive
48 | Nc1nc(Nc2cccc(Cl)c2)nc(NCc2ccco2)c1[N+](=O)[O-] | inactive

Row | Compound | Potency
49 | COc1cc(/C=C/C(=O)Nc2ccncc2)cc(OC)c1OC | inconclusive: 25.1 µM [inhibitor, partial curve]
50 | COc1ccc(C2NC(=O)c3sc4nc(C)c(C(C)=O)c(-c5ccc(Cl)cc5)c4c3N2)cc1 (stereo unspecified) | inconclusive: 25.1 µM [inhibitor, partial curve]
51 | CCOC(=O)C1=CC(OC(CC)CC)C(NC(C)=O)C(N)C1 (stereo unspecified) | inactive
52 | Cc1cc(=O)oc(C)c1C(=O)NCCCN1CCN(c2ccccc2F)CC1 | inconclusive: 39.8 µM [inhibitor, single point]
53 | COc1ccc(CCN=C(N)NS(=O)(=O)c2ccc3ccccc3c2)cc1 | inconclusive: 6.31 µM [inhibitor, single point]
54 | O=C(Nc1ccccc1C(=O)O)/C(=C/c1ccc([N+](=O)[O-])cc1)NC(=O)c1ccc(Br)o1 | inactive
55 | CCc1cc(CNC(=O)CC2C(=O)NCCN2Cc2c(F)cccc2Cl)on1 (stereo unspecified) | inactive
56 | CCc1cc2c(NCC(=O)O)ncnc2s1 | inconclusive: 39.8 µM [inhibitor, single point]
57 | COn1c(=O)c(-c2cccs2)[n+]([O-])c2ccccc21 | inconclusive: 28.2 µM [inhibitor, single point]
58 | Oc1cc(-n2cccn2)c(O)cc1-n1cccn1 | active: 15.8 µM
59 | Cc1ccc(Cn2c(=O)c3cccnc3n(CC(=O)Nc3cccc(C(F)(F)F)c3)c2=O)cc1 | inactive
60 | O=C(Nc1ccccc1N1CCCC1)c1cc2ccccc2o1 | inconclusive: 28.2 µM [inhibitor, partial curve]
61 | CCN(c1cccc(C)c1)S(=O)(=O)c1ccc2c3c(cccc13)C(=O)N2 | inconclusive: 28.2 µM [inhibitor, partial curve]
62 | COc1ccc(NC(=O)CSc2nc3c(c(=O)n2-c2ccccc2OC)SCC3)cc1 | inactive
63 | Cn1c(=O)c(NCCO)c2c3c(cccc31)C(=O)c1ccccc1-2 | inactive
64 | CCCCNc1nc(C)nc2c1nc(-c1ccccc1)n2CC(C)(C)CN(C)C | inconclusive: 28.2 µM [inhibitor, partial curve]
65 | CC1=C(C(=O)N2CCCCC2)C(c2cccs2)C2=C(CCCC2=O)N1 (stereo unspecified) | inconclusive: 22.4 µM [inhibitor, partial curve]
66 | Cc1ccc2oc(-c3ccccc3C(=O)O)cc(=O)c2c1 | inconclusive: 25.1 µM [inhibitor, partial curve]
67 | O=C(C1CCCCC1)N1CC(=O)N2CCc3ccccc3[C@@H]2C1 | inactive
68 | COc1cc2c(OC(C)=O)c3c(c(-c4ccc5c(c4)OCO5)c2cc1OC)C(=O)OC3 | inconclusive: 39.8 µM [inhibitor, single point]
69 | COCc1cc(C)nc(OCC(=O)N/N=C/c2ccc(C)o2)c1C#N | inconclusive: 28.2 µM [inhibitor, single point]
70 | C=CCn1c(N)c(C(=O)OCCC)c2nc3ccccc3nc21 | inconclusive: 28.2 µM [inhibitor, partial curve]
71 | Cc1ccc(-n2ncc3c(NCCCOC(C)C)ncnc32)c(C)c1 | inconclusive: 28.2 µM [inhibitor, partial curve]
